Screen size: about 420,000 compounds; about 50,000 (12%) were called active. This list was built around the results that the source calls inconclusive (neither active nor inactive); the mix of calls is not that of the screen. The call rests on the fitted dose curve; in most records, active means well fitted inhibition curve with a large enough effect; inconclusive means small, poorly fitted or top-dose-only effect; inactive means flat fitted curve, though single readings scatter. No potency is given beside an inconclusive call; the fits are too rough.
Test: qHTS for Inhibitors of human tyrosyl-DNA phosphodiesterase 1 (TDP1): qHTS in cells in presence of CPT; further: nearly all actives have a fitted effect of over 55% in size
Conditions: chicken DT40 Tdp1-/-;hTDP1 cells + 20 nM CPT, ATP luminescence, 48 h; activity change, negative = growth inhibition: at 46.2 µM (top of the series)
Method in brief: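 Chicken DT40 Tdp1-/- cells complemented with human TDP1, 400 cells/well, exposed to compounds plus 20 nM camptothecin for at least 48 h at 37 C; viability read as ATP content by CellTiter-Glo luminescence.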
On the % scale 0 is the no-effect control and ±100 the full control effect; potency means the concentration at half of the fitted maximal effect; tags describe the fitted curve by direction and shape.

For CC(C)(O)C#Cc1ccc(C(=O)NCCN2Cc3ccccc3OC(c3ccccc3F)C2)o1 (stereo unspecified), which activity change, negative = growth inhibition is on record?
Its activity change, negative = growth inhibition is inactive: 10% [at 9.04 µM].

For Cc1ccc(CS/C(Nc2ccccc2C)=C(\C#N)C(N)=O)c(C)c1, which Potency is on record?
The Potency was inconclusive [inhibitor, single point].

Which Potency does the source give for CCNc1nc(SCCOc2ccc(C)cc2)nc(N(C)C)n1 here?
The Potency was active: 16.4 µM.

For CN(C(=O)C1CCCC1)C1CCS(=O)(=O)C1 (stereo unspecified), which “activity change, negative = growth inhibition” value is on record?
The value was inactive: -3.92%.

For Brc1ccccc1OCCOCCOc1cccc2cccnc12, which Potency is on record?
Its Potency is inconclusive [inhibitor, single point].

For CC(C)OC(=O)CCC(=O)Nc1ccc(F)cc1, which “activity change, negative = growth inhibition” value is on record?
Its value is inactive: -2.27%.

Which “activity change, negative = growth inhibition” value does the source give for COc1ccccc1NC(=O)CS(=O)(=O)c1cn(CC(=O)N2CCCC2)c2ccccc12 here?
Its value is inactive: 1.06%.

Which Potency does the source give for CCN(CC)c1ccc(NC(=O)C2CCC(CNc3c(N4CCCC4)c(=O)c3=O)CC2)c(C)c1 (stereo unspecified) here?
The Potency was inconclusive [inhibitor, single point].

For CCc1cnc2c(c1SCC(=O)N1CCC(C)CC1)c(=O)n(C)c(=O)n2C, which Potency is on record?
Its Potency is active: 20.6 µM.

Which Potency does the source give for CCOC(=O)N1CCN(C(=O)C(C)(C)Oc2ccc(Cl)cc2)CC1 here?
The Potency was inconclusive [inhibitor, single point].

With Cc1nn(CCC(=O)N2CCN(c3ccccc3)CC2)c(C)c1S(=O)(=O)N1CCCC1 as the compound, how does the Potency read?
The Potency was active: 18.4 µM.

Which “activity change, negative = growth inhibition” value does the source give for CN(C)c1ccc(-c2ccnc3c2CC(C)(C(=O)Nc2cccc(C(F)(F)F)c2)O3)cc1 (stereo unspecified) here?
The value was inactive: -60.2%.

Which Potency does the source give for Cc1ccccc1-n1c(=O)[nH]c(=O)c2c(N)c(C(=O)c3ccc(Cl)cc3)sc21 here?
The Potency was inconclusive [inhibitor, single point].

With Cc1cc(C)n2nc(C(F)(F)F)c(-c3ccccc3)c2n1 as the compound, how does the “activity change, negative = growth inhibition” value read?
The value was inactive: -11%.

Which Potency does the source give for CC1(C(=O)NCC2CC2)CCN1C(=O)C/C=C/c1ccccc1 (stereo unspecified) here?
The Potency was inconclusive [inhibitor, single point].

With O=C(COC(=O)Cc1ccsc1)Nc1ccc(Cl)c(S(=O)(=O)N2CCOCC2)c1 as the compound, how does the Potency read?
The Potency was inconclusive [inhibitor, single point].

With NNC(=S)NC1CC2CC1C1C=CCC21 (stereo unspecified) as the compound, how does the Potency read?
The Potency was active: 9.2 µM.

Which Potency does the source give for CCOn1c(=O)c(-c2ccc(OC)c(OC)c2)[n+]([O-])c2ccccc21 here?
The Potency was inconclusive [inhibitor, partial curve, poor fit].

Which Potency does the source give for Cc1c(NC(=O)c2ccc(C(C)(C)C)cc2)cccc1[N+](=O)[O-] here?
Its Potency is active: 16.4 µM.

With O=C(C[n+]1cccc2cc(Cl)ccc21)c1ccc2ccccc2c1 as the compound, how does the Potency read?
Its Potency is active: 5.01 µM.

Which Potency does the source give for OC(CN1CCCCC1)Cn1c2ccccc2c2cc(Br)ccc21 (stereo unspecified) here?
The Potency was active: 16.4 µM.

With COc1ccc(/C=C2\Sc3ccc(C(=O)N4CCOCC4)cc3N(C)C2=O)cc1 as the compound, how does the Potency read?
The Potency was inconclusive [inhibitor, single point].

Which Potency does the source give for Cc1ccc(CNC(=O)C(=O)NCCC2CCCCN2S(=O)(=O)c2cccs2)cc1 (stereo unspecified) here?
The Potency was inconclusive [inhibitor, single point].

For Cc1ccc2c(C(=O)CN3CCSCC3)c(C)[nH]c2c1, which Potency is on record?
The Potency was active: 16.4 µM.

For O=c1c2cc(N3CCOCC3)ccc2[nH]c(=S)n1Cc1ccco1, which Potency is on record?
Its Potency is inconclusive [inhibitor, single point].

With CCOC(=O)c1c(-c2ccc(C)cc2)cn2ccccc12 as the compound, how does the “activity change, negative = growth inhibition” value read?
The value was inactive: -10.3%.

For CCOc1ccc(C(=O)OCC(=O)NCCCc2ccccc2)cc1, which Potency is on record?
The Potency was inconclusive [inhibitor, partial curve].

For COc1ccc2c(c1OC)C(=O)N1c3ccccc3C(=O)N(Cc3ccco3)C21 (stereo unspecified), which Potency is on record?
Its Potency is active: 10 µM.

With CCSc1ncc(Cl)c(C(=O)N(Cc2ccc(N(C)C)cc2)C2CCS(=O)(=O)C2)n1 (stereo unspecified) as the compound, how does the Potency read?
Its Potency is inconclusive [inhibitor, single point].

Which Potency does the source give for CC1CCCC(NC(=S)NC(=O)c2ccccc2Br)C1C (stereo unspecified) here?
The Potency was inconclusive [inhibitor, single point].

For CCOc1cc(CNC(=O)c2ccc3c(c2)N(C)C(=O)C2CCCCN32)cc(OCC)c1OCC (stereo unspecified), which Potency is on record?
Its Potency is inconclusive [inhibitor, single point].

With CCCOc1ccc(C(=O)Nc2cccnc2)cc1 as the compound, how does the Potency read?
Its Potency is inconclusive [inhibitor, single point].

Which Potency does the source give for CSc1nnc(-c2sc3cc(C(F)(F)F)cnc3c2-c2cccnc2)n1C here?
The Potency was inconclusive [inhibitor, single point].

For COc1cc(/C=C/C(=O)OCc2cn3cc(Cl)ccc3n2)ccc1O, which Potency is on record?
The Potency was inconclusive [inhibitor, single point].

For CCCOC(c1ccccc1)(c1ccc(C(F)(F)F)cc1)C(Oc1nc(C)cc(C)n1)C(=O)O (stereo unspecified), which Potency is on record?
Its Potency is active: 18.4 µM.

With Cc1ccc(NC(=O)C2(C)CCN2C(=O)Cc2ccc(C(C)C)cc2)cc1 (stereo unspecified) as the compound, how does the Potency read?
Its Potency is inconclusive [inhibitor, single point].

With CSc1ccc(CCNC(=O)c2ccc(CS(=O)(=O)c3ccc(Br)cc3)o2)cc1 as the compound, how does the Potency read?
The Potency was active: 23.1 µM.

Which Potency does the source give for Cc1ncoc1C(=O)N1CCCC(CCC(=O)NCc2ccccc2F)C1 (stereo unspecified) here?
The Potency was inconclusive [inhibitor, single point].

With CCc1cccc(NC(=O)CCc2nc3cccnc3n2-c2ccccc2)c1 as the compound, how does the Potency read?
The Potency was inconclusive [inhibitor, partial curve].

For O=C(/C=C/c1ccco1)NC(=S)N1CCCCC1, which “activity change, negative = growth inhibition” value is on record?
The value was inactive: -15%.

With CC1CCc2c(sc(NC(=O)c3ccc(Cl)cc3Cl)c2C#N)C1 (stereo unspecified) as the compound, how does the Potency read?
The Potency was inconclusive [inhibitor, single point].

Which Potency does the source give for Cc1cc(-c2nnc(SCC(=O)Nc3ccccc3C(F)(F)F)n2N)n[nH]1 here?
Its Potency is inconclusive [inhibitor, single point].

For CCOC(=O)N1CCc2c(sc(NCc3ccc(N(C)C)cc3)c2C(=O)Nc2ccc(OC)cc2)C1, which Potency is on record?
Its Potency is active: 20.6 µM.

For CCc1ccc(NC(=O)CCCOc2cc(=O)n(C)c3ccccc23)cc1, which Potency is on record?
Its Potency is inconclusive [inhibitor, partial curve].

For Cc1ccc(C)c(CN2C(=O)C(C)Oc3ccc(C)cc32)c1 (stereo unspecified), which Potency is on record?
Its Potency is inconclusive [inhibitor, partial curve, poor fit].

For COc1ccc(C)cc1S(=O)(=O)N1CCCC(N2CCN(c3ccccc3)CC2)C1 (stereo unspecified), which Potency is on record?
Its Potency is inconclusive [inhibitor, single point].

From PubChem BioAssay AID686979 (National Center for Advancing Translational Sciences (NCATS), 2013)
